# Results reported in paper PMC13083723 (Patterns, 2026).
# Out of some 5,400 compounds screened, about 190 (3.5%) showed an effect of 50% or more. This is one part of the list.
# Test system: Vero-E6
# Assay: primary screen, phospholipidosis by LipidTOX staining; higher = more effect of the substance
# Conditions: 10 µM
# Procedure, shortened: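 Single-concentration screen at 10 μM, with DMSO 0.1 v/v % and amiodarone 10 μM as controls. Read-out is LipidTOX Red phospholipid staining, which tolerates aldehyde fixation, in Vero-E6 cells.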
row,Structure (SMILES),result_ITMP [%]
1,COc1cc2c(Nc3ccc(Cl)c(Cl)c3F)ncnc2cc1OC[C@@H]1C[C@@H]2CN(C)C[C@@H]2C1,55.5
2,Cc1cc(=O)oc2c(C=O)c(O)ccc12,-9.22
3,Cc1cc(C(=O)N2Cc3cnn(C)c3Nc3ccccc32)ccc1CNC(=O)N1CCC[C@H]1C(=S)N1CCCN(C)CC1,-9.06
4,CC(C)C(N)=O,-3.55
5,CC(C)c1ccc(NC(=O)Cn2cnc3c2c(=O)n(C)c(=O)n3C)cc1,-4.51
6,O=C(O)c1cc(O)c2c3nc4ccccc4oc-3cc(=O)c2n1,-7.78
7,C[C@H](NC(=O)/C(C#N)=C/c1cccc(Br)n1)c1ccccc1,-3.24
8,O=C(NCCN1CCN(c2ncccn2)CC1)C12CC3CC(CC(C3)C1)C2,-4.43
9,Cc1ccccc1NC(=N)Nc1ccccc1C,3.35
10,CC[N+](CC)(CCCNC1=CC(=O)C(NCCC[N+](CC)(CC)Cc2ccccc2)=CC1=O)Cc1ccccc1,1.27
11,CCNC(=O)c1[nH]nc(-c2cc(Cl)c(O)cc2O)c1-c1ccc(OC)cc1,-3.87
12,CCC(CC)n1ccc2c(C(=O)NCc3c(C)cc(C)[nH]c3=O)cc(C#N)cc21,0.08
13,NC[C@@H]1O[C@H](O[C@H]2[C@@H](O)[C@H](O[C@@H]3[C@@H](O)[C@H](N)C[C@H](N)[C@H]3O[C@H]3O[C@H](CO)[C@@H](O)[C@H](O)[C@H]3N)O[C@@H]2CO)[C@H](N)[C@@H](O)[C@@H]1O,-1.27
14,Cc1c(C2CCN(CCc3ccccc3)CC2)noc1-c1ccc(Cl)cc1,48.8
15,O=C/C=C/c1ccccc1,-3.17
16,C=C1/C(=C\C=C2/CCC[C@]3(C)[C@@H]([C@H](C)CC[C@@H](O)C(C)C)CC[C@@H]23)C[C@@H](O)C[C@@H]1O,-2.08
17,CCCC(CCC)C(N)=O,0.56
18,CCCCCOc1c(OC)ccc2cc(C(=O)NCc3ccc4c(c3)OCO4)c(=O)[nH]c12,-2.62
19,CC[C@@]1(O)C(=O)OCc2c1cc1n(c2=O)Cc2cc3ccccc3nc2-1,-4.42
20,CCN(CCNC(=O)Nc1ccccc1Br)c1cccc(C)c1,-1.32

row,Structure (SMILES),result_ITMP [%]
1,CCNC(=O)Nc1ccc(-c2nc3c(c(N4CCOC[C@@H]4C)n2)CCN(C2COC2)C3)cc1,9.83
2,CC(OC(=O)OC1CCCCC1)OC(=O)C1=C(CSc2nnnn2CCN(C)C)CS[C@@H]2[C@H](NC(=O)Cc3csc(N)n3)C(=O)N12 (some centres unmarked),-7.73
3,O=C(O)c1ccccc1NC(=O)C12CC3CC(CC(C3)C1)C2,-4.05
4,CCCN(CCC)S(=O)(=O)c1ccc(C(=O)O)cc1,-3.55
5,CCOC(=O)[C@@H](C)Oc1ccc(Oc2nc3ccc(Cl)cc3o2)cc1,-2.21
6,CC(C)(C)NCC(O)COc1ccc(NC(=O)NC2CCCCC2)cc1 (centres unmarked),-4.12
7,CC(C1=C(CCN(C)C)Cc2ccccc21)c1ccccn1 (centres unmarked),10.3
8,COc1ccncc1C(=O)NC(=O)Nc1ccc(-c2ccccc2)c(C(F)(F)F)c1,0.32
9,Nc1nccc(/C=C/c2ccccc2)n1,-2.33
10,O=C1NC(=O)c2c1c1c3ccccc3[nH]c1c1[nH]c3ccccc3c21,-10.6
11,OC(c1ccccc1)(c1ccccc1)C12CC[N+](CCOCc3ccccc3)(CC1)CC2,-0.61
12,COc1cc2c3cc1Oc1cc(ccc1O)C[C@@H]1c4c(cc(OC)c(O)c4Oc4ccc(cc4)C[C@@H]3N(C)CC2)CC[N+]1(C)C,-3.39
13,CC(CCc1ccccc1)NC(C)C(O)c1ccc(O)cc1 (centres unmarked),18.6
14,CS(=O)CCCCN=C=S (centres unmarked),4.51
15,Cc1ncc(CO)c(CO)c1O,2.41
16,O=C(O)c1ccc(-c2c[nH]c3ncc(-c4ccccc4)cc23)cc1C1CCCC1,0.91
17,CN1CCc2cc(Cl)c(O)cc2[C@@H](c2ccccc2)C1,1.73
18,C[C@]12C=CC(=O)C=C1CC[C@@H]1[C@@H]2CC[C@]2(C)OC(=O)CC[C@@H]12,-2.34
19,NC(=O)c1nc(Nc2ccccc2)sc1NC(=O)C1CCCCC1,-5.89
20,C=CC(=O)Nc1cc(Nc2nccc(-c3c[nH]c4ccccc34)n2)c(OC)cc1N(C)CCN(C)C,40.6

row,Structure (SMILES),result_ITMP [%]
1,O=[N+]([O-])c1cncn1CCN1CCOCC1,-2.15
2,C=CC(=O)Nc1cc(Nc2nccc(-c3cn(C)c4ccccc34)n2)c(OC)cc1N(C)CCN(C)C,38.1
3,C#Cc1cccc(Nc2ncnc3cc4c(cc23)OCCOCCOCCO4)c1,12.6
4,Cc1ccc(NCCCc2ccccc2)c(N)c1,-2.41
5,CCc1c(C)[nH]c2c1C(=O)C(CN1CCOCC1)CC2 (centres unmarked),3.76
6,COc1cc(NC(=O)c2cccc(-n3cc(NC(=O)Nc4cccc(C)c4)cn3)c2)cc(OC)c1OC,-5.83
7,NC(=O)CNCCC(c1ccccc1)c1ccccc1,-0.08
8,COc1cc(C(=O)NCCCCCC(=O)O)cc(OC)c1OC,-0.54
9,CC1=C(C(=O)O)N2C(=O)[C@@H](NC(=O)[C@H](N)C3=CCC=CC3)[C@H]2SC1,-1.83
10,N[C@@H](CCC(=O)N[C@@H](CS)C(=O)NCC(=O)O)C(=O)O,-0.05
11,CCCN(C/C=C/I)C1CCc2ccc(O)cc2C1 (centres unmarked),2.45
12,N#CC(c1ccccc1)(c1ccccc1)c1ccccc1Cl,-3.02
13,Cc1ncc(CO)c(/C=N/NC(=O)c2ccncc2)c1O,-0.03
14,NC(=O)CN1C[C@H](O)CC1=O,-0.97
15,Nc1nc(NC2CC2)cc(-c2cccc(Cl)c2Cl)n1,-0.91
16,CC1Sc2c(C(=O)O)c(=O)c3cc(F)c(N4CCNCC4)cc3n21 (centres unmarked),-2
17,CC(=O)Oc1ccccc1C(=O)O,-1.07
18,CC(Oc1ccc(Cl)cc1)c1ccnc2ncnn12 (centres unmarked),-0.09
19,CC1=C(/C=C/C(C)=C/C=C/C(C)=C/C=C/C=C(C)/C=C/C=C(C)/C=C/C2=C(C)C(=O)[C@@H](O)CC2(C)C)C(C)(C)C[C@H](O)C1=O,-6.09
